# Results taken from ChEMBL document CHEMBL1201862, “PubChem BioAssay data set” (2004).
#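 Exposure lasted 48 hours, with cells grown in 96-well plates and compounds tested at five concentrations. At the GI50, growth is halved.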 The source made the active and inactive calls. Rule as the data show it: active = GI50 up to about 1.1 µM and inactive = higher.
# Tested on: NCI-H322M
# Test: growth of human tumour cells (NCI), 48 h
row,SMILES,GI50
1,Cc1ccc(O)c(-c2cc(-c3ccccc3)nc(/N=C\c3ccccc3)n2)c1,inactive: 48.1 µM
2,OCC#CCNCl,inactive: > 100 µM
3,COc1ccc(NC(=O)C(=O)Cc2nc3ccc([N+](=O)[O-])cc3nc2O)c(OC)c1,inactive: > 100 µM
4,CCOC(CN(C)C(=O)Nc1ccc(Cl)c(Cl)c1)OCC,inactive: > 10 µM
5,O=C(CCc1ccc(O)cc1)NCCc1cccc(OCc2ccccc2)c1,inactive: 47.1 µM
6,CC(C)(Oc1ccc(/C=C/C(=O)c2ccccc2)cc1)C(=O)Nc1c(Cl)cccc1Cl,inactive: > 10 µM
7,CCO/C(=N/S(=O)(=O)C(F)(F)F)N(C(C)C)C(C)C,inactive: > 100 µM
8,COc1ccc(/C=C(/C(=O)c2ccc(Cl)cc2)N2C=CC=CC2=C(C#N)C#N)cc1OC,inactive: 17.2 µM
9,Clc1ccc(CCN[C@H]2CCCC[C@H]2N2CCCC2)cc1Cl,inactive: 17.8 µM
10,COc1cc(CNC(=O)CCCCCCCCCCSC#N)ccc1O,inactive: 14.8 µM
11,COC(=O)C1C(C(=O)OC)C1(Br)CBr (stereo not drawn),inactive: > 100 µM
12,Cc1ccccc1C1OC(=O)c2ccc3ccccc3c21 (stereo not drawn),inactive: 3.22 µM
13,Nn1c(Cc2ccc([N+](=O)[O-])cc2)n[nH]c1=O,inactive: > 100 µM
14,Cc1ccc(C(=O)/C=C2/Nc3ccccc3NC2=O)c(C)c1,inactive: 15 µM
15,O=C1NN(c2ccccc2)C(=O)C2C3c4ccccc4C(c4ccccc43)C12 (stereo not drawn),inactive: > 100 µM
16,COc1cccc(C2c3cc4c(cc3OC(N3CCCCC3)C2C)OCO4)c1OC (stereo not drawn),inactive: 17.3 µM
17,COc1cc(/C=C\c2ccc(SC)cc2)cc(OC)c1OC,active: 0.0395 µM
18,O=C(NC(Cc1ccc(Cl)cc1)C(=O)O)c1ccc(I)cc1 (stereo not drawn),inactive: > 100 µM
19,CCCCS(=O)(=O)Nc1ccc(Nc2c3ccccc3nc3ccccc23)c(OC)c1,inactive: 10.8 µM
20,O=C(/C=C/c1ccccc1)CC1OC(=O)c2ccccc21 (stereo not drawn),inactive: > 100 µM
21,Nc1ccc(C2SCC(=O)N2NS(=O)(=O)c2cccc(C(=O)O)c2)cc1 (stereo not drawn),inactive: > 100 µM
22,ClC1CCC2OOC1O2 (stereo not drawn),inactive: > 100 µM

row,SMILES,GI50
1,O=C1C=C(Nc2nc(O)cc(C(=O)O)n2)c2ccccc2C1=O,inactive: > 100 µM
2,COC(=O)/C=C\C(C#N)(C#N)/N=C/c1ccc(C)s1,inactive: 15.5 µM
3,CC12CCC3[C@@H](CC3(C)C)C(O)(CCC1=O)C2 (stereo partly drawn),inactive: > 100 µM
4,O=C(O[C@H](/C=C/c1ccccc1)P1(=O)N(Cc2ccccc2)[C@@H]2CCCC[C@H]2N1Cc1ccccc1)c1ccccc1,inactive: 5.71 µM
5,CC(C)(Cl)C(Br)CC/C(=C/CCl)CBr.CC(C)(Cl)C(Br)CC/C(=C\CCl)CBr (stereo not drawn),inactive: 3.68 µM
6,Nc1ncnc2c1ncn2C1OC(CO)C2OC21 (stereo not drawn),inactive: > 100 µM
7,N#C[C@]12CC3(CC[C@H]1CC1(C2)OCCO1)OCCO3,inactive: > 100 µM
8,O=C1/C(=C/c2cc3c(=O)c4ccccc4sc3s2)NC(=S)N1c1ccccc1,inactive: > 100 µM
9,COc1ccc(/N=N/c2ccc3oc(=O)c(C(=O)Nc4ccccc4)cc3c2)cc1,inactive: 6.32 µM
10,COc1ccc2cc1Oc1ccc(cc1)CC1c3cc(c(OC)cc3CCN1C)Oc1c3c(cc4c1C(C2)N(C)CC4)OCO3 (stereo not drawn),inactive: 14.1 µM
11,CN(C)/C=N/c1nc2ncn(CCOC(=O)c3ccccc3)c2c(=O)[nH]1,inactive: > 100 µM
12,CCOC(=O)C[C@@]12CCCNC1(C)CCc1ccccc12 (stereo partly drawn),inactive: > 100 µM
13,COc1ccc(C(c2ccc(C(C)C)cc(OC)c2=O)c2ccc(C(C)C)cc(OC)c2=O)cc1,inactive: 13.8 µM
14,CN(CCN1C(=O)c2cc([N+](=O)[O-])cc3cc([N+](=O)[O-])cc(c23)C1=O)CCN1C(=O)c2cc([N+](=O)[O-])cc3cc([N+](=O)[O-])cc(c23)C1=O,inactive: 3.27 µM
15,BrCC(Br)(c1ccccc1)c1ccccc1-c1cc(-c2ccccc2)cc(-c2ccccc2)n1 (stereo not drawn),inactive: 6.79 µM
16,COC(=O)C1OC(O[C@H]2CC[C@]3(C)[C@H]4CC=C5[C@@H]6CC(C)(C)CC[C@]6(C(=O)OC6OCC(O)C(O)C6OC6OC(C)C(OC7OCC(OC8OCC(O)C(O)C8O)C(O)C7O)C(O)C6O)[C@H](O)C[C@@]5(C)[C@]4(C)CC[C@H]3C2(C)C)C(O)C(O)C1O (stereo partly drawn),inactive: 3.38 µM
17,COC(=O)/C(=N\N)C(C(=O)C(=O)Nc1cc(Cl)ccc1Cl)c1nc2ccc([N+](=O)[O-])cc2nc1O (stereo not drawn),inactive: > 100 µM
18,CC(C)(CN1CCCCC1)C(=O)/C=C/c1ccccc1,inactive: 8.67 µM
19,CC1OC(OC2C(O)COC(OC3C(C)OC(OC4C(OC(=O)[C@]56CCC(C)(C)C[C@@H]5C5=CCC7[C@@]8(C)C[C@H](O)[C@H](OC9OC(CO)C(O)C(O)C9O)[C@@](C)(CO)[C@@H]8CC[C@@]7(C)[C@]5(C)CC6)OCC(O)C4O)C(O)C3O)C2O)C(O)C(O)C1O (stereo partly drawn),inactive: 17.8 µM
20,COc1cc2c(cc1OC)C(=O)C1(C2)[C@H](c2ccccc2)C2C(=O)c3cc(OC)c(OC)cc3C2[C@H]1c1ccccc1 (stereo partly drawn),inactive: > 100 µM
21,O=C(Nc1cccc2ccccc12)Oc1ccccc1C1CCCCC1,inactive: 22.4 µM
22,C[Si](C)(C)/C=C\CCO,inactive: > 100 µM

row,SMILES,GI50
1,COc1cc(OC2OC(CO)C(O)C(O)C2O)c2c(c1)O[C@@H]1[C@H](O)Oc3cc(OC)c(OC)cc3[C@]1(O)C2=O (stereo partly drawn),inactive: > 25 µM
2,CCCN(CCc1ccc(-c2ccccc2)cc1)CCc1ccc2nn[nH]c2c1,inactive: 11.6 µM
3,COc1cccc(CC2C(=O)N/C(=N\C(C)=O)N2C)c1OC(C)=O (stereo not drawn),inactive: > 100 µM
4,CCC1C(=O)OCc2c1cc1n(c2=O)Cc2ccccc2-1 (stereo not drawn),inactive: > 100 µM
5,CC(Cl)CC(=O)OCC1CCCN2CCCCC12 (stereo not drawn),inactive: > 100 µM
6,CCCNCC(=O)O[C@]1(CC)C(=O)OCc2c1cc1n(c2=O)Cc2cc3ccccc3nc2-1,active: 0.537 µM
7,CSc1nc(NC2OCC(OC(C)=O)C(OC(C)=O)C2OC(C)=O)c(/N=C(\C)C(C)=O)c(=O)n1C (stereo not drawn),inactive: > 100 µM
8,COC(=O)c1ccccc1C1CN=NC12Cc1c(C)ccc(C)c1C2=O (stereo not drawn),inactive: > 100 µM
9,COc1ccc(Oc2nc3ccc(C(F)(F)F)cc3nc2-c2ccccc2)cc1,inactive: > 100 µM
10,c1ccc(-c2ccc(/N=N/N3CCCC3)cc2)cc1,inactive: > 100 µM
11,O=[N+]([O-])C(=C(N1CCCCC1)N1CCCCC1)/C(Cl)=C(\Cl)Br,inactive: 24.9 µM
12,O=c1[nH]c(=O)n([C@@H]2C[C@H](CO)[C@H](O)C2)cc1/C=C/Br,inactive: > 100 µM
13,CCOP(=O)(OCC)C(C(=O)OC)C(=O)C(=O)Nc1cccc([N+](=O)[O-])c1 (stereo not drawn),inactive: > 100 µM
14,FC(F)(F)c1cccc2ns[s+]c12,inactive: > 100 µM
15,Nc1ccc([As](=O)(O)O)cc1 [ARSANILIC ACID],inactive: > 100 µM
16,COc1cc(Br)c(/C=N\c2cccc3ccc(OS(=O)(=O)c4cccc([N+](=O)[O-])c4)cc23)cc1OC,inactive: > 100 µM
17,C[C@H]1[C@H](C)CC[C@]2(C(=O)OC3OC(CO)C(O)C(O)C3O)CC[C@]3(C)C(=CC[C@@H]4[C@@]5(C)C[C@@H](O)[C@@H]6OC(=O)c7cc(O)c(O)c(O)c7-c7c(cc(O)c(O)c7O)C(=O)OC[C@@]6(CO)[C@@H]5CC[C@]43C)[C@H]12 (stereo partly drawn),inactive: > 100 µM
18,Cc1cc(S(=O)(=O)Nc2nnc3cnc4ccccc4n23)c(S)cc1Cl,inactive: 67.5 µM
19,Cc1cc(-c2nc3cccc(F)c3s2)ccc1N,inactive: > 73.5 µM
20,CCCCn1cc[n+](-c2nc3ccccc3n2C)c1,inactive: > 100 µM
21,FC(F)(F)c1nc2ccc3[nH]c4c(-c5ccccc5)nccc4c3c2[nH]1,inactive: > 100 µM
22,O=[N+]([O-])C1Cc2ccccc2OC1c1ccccc1 (stereo not drawn),inactive: > 100 µM

row,SMILES,GI50
1,O=c1[nH]c2ccc(C(F)(F)F)cc2nc1Cc1ccccc1,inactive: > 100 µM
2,CC12CCc3ccccc3C1=Nc1ccccc12 (stereo not drawn),inactive: 68.9 µM
3,COC(=O)c1c(O)ccc2c1c1c(n2Cc2ccc(Cl)cc2Cl)C(=O)c2ccccc2C1=O,inactive: 13.6 µM
4,COc1ccc(NC(=O)/C(Cc2cc(=O)oc3cc(O)ccc23)=N\NC(C)(C)C)c(OC)c1,inactive: > 100 µM
5,CCOC(=O)C(=CNC(=S)Nc1c(CC)cccc1CC)C(=O)OCC,inactive: > 100 µM
6,N#CC[C@@H](O)COc1ccccc1,inactive: > 100 µM
7,[N-]=[N+]=Nc1c(Cl)c(Cl)nc2ccccc12,inactive: 27.9 µM
8,CN(C)CCCNc1ccc2nnn3c4ccc([N+](=O)[O-])cc4c(=O)c1c23,active: 1.06 µM
9,O=C1CN(c2cccc(Cl)c2)C(=O)CN1NCNN1CC(=O)N(c2cccc(Cl)c2)CC1=O,inactive: > 100 µM
10,CCOC(=O)Nc1[nH]cc(-c2ccccc2)c1C#N,inactive: > 100 µM
11,O=c1oc2ccc3ccccc3c2cc1-c1cn2ccccc2n1,inactive: 62.2 µM
12,CCOC(=O)c1ccc(C(=O)/C(C#N)=C2\CCCN2C)[nH]1,inactive: > 100 µM
13,Cc1nc(-c2ccc(/N=C/c3ccc(N(CCOS(C)(=O)=O)CCOS(C)(=O)=O)cc3C)cc2)cs1,inactive: 58.2 µM
14,CN1CCc2cc(N)cc3c2C1Cc1ccc2c(c1-3)OCO2 (stereo not drawn),inactive: 30.8 µM
15,O=C(Nn1c(-c2cccs2)nc2ccc(I)cc2c1=O)c1ccccc1,inactive: 27.2 µM
16,CCCC[C@@H](C)/C=C1\CN2CCC[C@H]2[C@@](C)(O)[C@@H]1O,inactive: > 100 µM
17,c1cc(N(CCn2cccn2)CCn2cccn2)cc(N(CCn2cccn2)CCn2cccn2)c1,inactive: > 100 µM
18,Cc1cc(C(O)CCCc2ccccc2)cc(C)c1O (stereo not drawn),inactive: 93.8 µM
19,C=C1[C@H](OCC(C)C)[C@@H](OCC(C)C)[C@@H](O)C(C)(C)/C=C/[C@H](C)C(=O)[C@@]2(O)C[C@H](C)[C@H](O)[C@@H]2[C@H]1OCC(C)C,inactive: > 7.5 µM
20,Cc1ccc(-c2n[nH]c(=O)n2N)cc1,inactive: > 100 µM
21,CN(CC#N)C(=O)Cc1ccc([N+](=O)[O-])cc1,inactive: > 10 µM
22,Brc1ccc(/N=N/c2ccc3ccccc3n2)cc1,inactive: 18.2 µM
